Values marked as one replicate rest on one cluster of the flow cell; about a third of the high ones do not repeat.
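Note: ATP exposure 15 min at 22 °C before imaging.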

This data set has as its system ATP. As to the kind of experiment: switch fluorescence ratio, 500 uM ATP over buffer (Cy3 cluster intensity, sum of 5 cycles each) (fold (ratio)); higher = stronger signal-on switching upon ATP binding; sequences stand for … in TCGTCGGCAGCGTCAGATGTGTATAAGAGACAGTTTTTTTTTTTTTTTTTTTTTTTTT…TC. As to conditions: aptamer strand: ATP DNA aptamer (quencher-CACCTGGGGGAGTATTGCGGAGGAAGG + anchor), 100 nM annealed; ATP concentration: 500 uM; one replicate. Summed up: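 Cy3-labelled switching-strand clusters on a modified Illumina MiSeq flow-cell were annealed to 100 nM quencher-labelled ATP aptamer, imaged in selection buffer, then imaged after 15 min with 500 uM ATP at 22 °C. Five buffer/ATP cycles ran, with NaOH stripping and re-annealing between them. The fluorescence ratio is summed target-cycle over summed buffer-cycle Cy3 intensity per cluster, averaged per switch-domain sequence. Clusters outside 100-1000 RFU were excluded.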
Consider ACCGCGCATC, for which the switch fluorescence ratio is 1.96.
The value for GTCTGCG was 1.04.
Regarding ATATCCGGAT, the switch fluorescence ratio is 1.03.
Consider TGCCACTCGG, for which the switch fluorescence ratio is 0.998.
The same measure for TATAAGGGAT: 1.04; for CAGTGGAACT: 1.01.
The same measure for CGGGACCCTT: 1.04; for AGCACATCGA: 1.15.
The value for AACCTAGCTC was 1.14; that for GGTCCCCCCT was 1.05; that for GAGGATCATA was 0.972.
Turning to CGTGGGGACA, the switch fluorescence ratio turned out to be 1.02.
For the sequence CCTTAACCAG, the switch fluorescence ratio was 1.04.
The value for CCATTTGGGC was 0.906; that for GATGTACGCG was 0.927; that for CATATTCT was 0.994.
The same measure for TGTTTCAGCA: 1.01.
The value for CCCCTCTGGG was 1; that for ATGTTGGTT was 0.973; that for ATAATTGACT was 1.05.
For TCCTTCGTAT, the switch fluorescence ratio turned out to be 3.76.
The same measure for TAACCAATAT: 1.05; for ACGGTGAAAA: 0.962.
The value for CCTAGAGCGC was 1.09; that for TGTCTGAACT was 0.992; that for TGCCGGCGAC was 0.995.
For GCGATATGCG, the switch fluorescence ratio came out at 1.05.
The value for ACGGGTGACG was 0.884; that for TGCCGAAAGA was 1.01; that for TTATGGCGTG was 0.99.
For the sequence GCTTGCCAGT, the switch fluorescence ratio worked out at 1.02.
The same measure for TGGCCCAAAC: 1.01; for TGTGGGTAGA: 0.995; for GCTAGTTTAG: 0.965.
The same measure for CTTCAGGGCC: 0.979.
The same measure for TTAAACTCAT: 0.987; for TGGCGACTGG: 0.999; for TTTATGGGC: 0.989.
With GCCGGGGCA, the switch fluorescence ratio worked out at 0.917.
As for AGCGAACTCG, the switch fluorescence ratio is 1.06.
On to CGAATAGCGC, for which the switch fluorescence ratio was found to be 0.98.
The value for GAGGGCATAC was 1.67; that for AAATTTTATA was 1.02.
The same measure for TTGAACCTGC: 1.06; for GCGACAGGCC: 1.03; for ACCTGTAAAC: 1.01.
On to CCGGTACTC, for which the switch fluorescence ratio is 3.83.
For AAGGTAAATC, the switch fluorescence ratio is 1.01.
The value for GGCTACGGAG was 0.974; that for AATACGACA was 1.33; that for AAGTGCTAA was 0.979.
The same measure for GCAAGGCGTT: 1.02; for TAAACGTAAA: 1.1; for TGATCGTATA: 1.
The same measure for TGGCGTTATC: 0.968.
As for TGCTGCGTCA, the switch fluorescence ratio is 1.
The value for CGGTTTGGT was 0.942; that for AATATCTTAA was 1.03.
The same measure for ATGAATTGC: 0.95.
On to CTAGTCGCTG, for which the switch fluorescence ratio turned out to be 0.986.
For ATTGTTATC, the switch fluorescence ratio was 0.965.
Consider TCGCTGTGCT, for which the switch fluorescence ratio was 1.11.
On to ATCAGAAATC, for which the switch fluorescence ratio was determined as 1.05.
With GCGGTTTTTA, the switch fluorescence ratio came to 1.05.
Consider CTAAAATGAT, for which the switch fluorescence ratio was 1.01.
The same measure for TTAGATATAC: 1.36.
The same measure for ATCAAAAGA: 1.02.
Consider TCCTGTTCGT, for which the switch fluorescence ratio was 1.
As to CAGAGAATCC, the switch fluorescence ratio stood at 1.03.
The value for TCAGGTCGGA was 0.988; that for AGTCATCCGT was 1.06; that for GGTAGGAAAT was 0.989.
With TTCCAGGTCT, the switch fluorescence ratio came to 1.05.
The same measure for TTATGCCAAA: 0.994.
In the case of TGAGATGTAG, the switch fluorescence ratio was determined as 1.
The same measure for CCATCCTTTT: 1.44.
The value for GTGCTTCCTG was 1.08; that for TGGACTATAA was 1.03; that for AGTAGTTGCT was 0.991.
The same measure for CGCATAGTAT: 1.08.
As for TCCGAGAGCG, the switch fluorescence ratio turned out to be 2.89.
TTTTTCATTC: the switch fluorescence ratio was 1.04.
The same measure for ATTTCCGTAT: 1.02.
In the case of TAAGCCGTTC, the switch fluorescence ratio is 1.
The value for GAGGAGGGTC was 1.02.
On to GAGCGGAACT, for which the switch fluorescence ratio came to 1.09.
The value for CAATAATAGA was 0.986; that for GCTACTTACT was 1.24.
The value for CCCGACTCGG was 0.972; that for CTTGAGGAAA was 0.997; that for TCATTCAGCT was 1.
TCTCCAATCT: the switch fluorescence ratio came to 1.18.
The same measure for AGGGAAGTAT: 1.06; for TATTCTGTTT: 0.944.
In the case of GGGTCCCGCT, the switch fluorescence ratio stood at 0.966.
The value for CGCCGGGTCT was 1.09.
The value for GTCAATACAT was 1.13; that for AATGCGGGG was 0.971.
GTGTTAGTGG: the switch fluorescence ratio was 0.978.
In the case of CGCTAGGCGT, the switch fluorescence ratio is 0.991.
The same measure for GAATACGCTA: 1.56; for TACATTGCGT: 0.973; for CGCCCCTCAA: 1.23.
As to AAGGAGCTGG, the switch fluorescence ratio was determined as 0.981.
As for ATCTGACTGC, the switch fluorescence ratio worked out at 1.03.
The value for TTGGGAGTCT was 0.982; that for ATCCAATCCC was 1.01; that for CTCCTCAGAC was 2.97.
The same measure for TTAGGACGTA: 1.03.
On to TTAATGGCTT, for which the switch fluorescence ratio stood at 1.04.
Consider CCCAAATGCG, for which the switch fluorescence ratio came to 1.06.
With CACCCTATTG, the switch fluorescence ratio turned out to be 1.07.
The value for TGAGGCCAA was 1.04; that for TCTGATGAGT was 0.99; that for ACGGTGGGT was 0.95.
The same measure for TCTAATCAAG: 0.982; for CCTGAGGATA: 1.04.
For the sequence TATGACAAGA, the switch fluorescence ratio was found to be 1.04.
The same measure for GAGTTTTTCT: 0.944; for TGCGACTCGC: 0.986.

The values are drawn from the supplement of paper PMC10126150.
